Laboratory results published in the supplement of paper PMC10126150.
Sequences with one replicate were seen in a single cluster, so their values are uncertain.

System: ATP
Assay: switch fluorescence ratio, 500 uM ATP over buffer (Cy3 cluster intensity, sum of 5 cycles each) (fold (ratio)); higher = stronger signal-on switching upon ATP binding; sequences stand for … in TCGTCGGCAGCGTCAGATGTGTATAAGAGACAGTTTTTTTTTTTTTTTTTTTTTTTTT…TC
Settings: aptamer strand: ATP DNA aptamer (quencher-CACCTGGGGGAGTATTGCGGAGGAAGG + anchor), 100 nM annealed; ATP concentration: 500 uM; one replicate
Procedure, shortened: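 Cy3-labelled switching-strand clusters on a modified Illumina MiSeq flow-cell were annealed to 100 nM quencher-labelled ATP aptamer and imaged first in selection buffer, then after 15 min with 500 uM ATP at 22 °C. NaOH stripping and re-annealing separated each of five buffer/ATP cycles, and clusters outside 100-1000 RFU were excluded. The fluorescence ratio sums target-cycle Cy3 intensity over buffer-cycle Cy3 intensity per cluster and averages it per switch-domain sequence.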
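Further: ATP exposure 15 min at 22 °C before imaging.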

Sequence	switch fluorescence ratio
CTCTGAAT	1.05
CTCTGACCAC	1.42
CTCTGATGAG	1.01
CTCTGGAGGA	1.01
CTCTGGATGC	2.23
CTCTGTACGT	1.05
CTCTGTCCG	0.989
CTCTGTGGCT	1
CTCTGTTAGG	1
CTCTTAAATA	1.14
CTCTTACTGC	1.05
CTCTTCAATG	1.29
CTCTTCAGCG	1.02
CTCTTCCAGT	1.06
CTCTTCCTGT	1
CTCTTGACTG	1.03
CTCTTGCATC	1.96
CTGAAAGATG	0.965
CTGAACAAA	1.02
CTGAACTACT	1.06
CTGAAGGG	1.06
CTGAAGGTTT	1.03
CTGAATGTTC	0.996
CTGAATTTTG	0.976
CTGACAACAC	2.08
CTGACAATT	1.12

Sequence	switch fluorescence ratio
CTGACATTCT	1.05
CTGAGAATG	0.998
CTGAGACAGG	1.06
CTGAGATATG	1
CTGAGCACTC	1.85
CTGAGCAGCA	1.16
CTGAGGAATG	1.02
CTGAGTGAGC	1.05
CTGAGTTTA	0.993
CTGATACCGG	0.95
CTGATAGGTG	1.02
CTGATATGTT	0.962
CTGATCCTAT	1
CTGATCGGAT	0.991
CTGATCGTGG	1.02
CTGATGCTA	1.61
CTGATGGAA	1.04
CTGATGGGAT	1.26
CTGATGGGCG	0.979
CTGATGGTGC	1.44
CTGATGTTAG	1.01
CTGATTAAAT	1.01
CTGATTACCT	1.23
CTGATTACTC	1.02
CTGCAATCAG	3.61
CTGCAATCTT	6.11

Sequence	switch fluorescence ratio
CTGCACACAA	1.39
CTGCACAGAC	4.04
CTGCAGCCTG	1.09
CTGCATATTT	1.16
CTGCCCAATA	3.33
CTGCCTTATA	1.01
CTGCGCGTTA	1.12
CTGCGGAAAA	0.995
CTGCGGAGTA	1.03
CTGCGGTTTT	0.985
CTGCGTGAGT	0.989
CTGCGTGATC	1.24
CTGCTAAGCA	1.05
CTGCTATGAA	1.03
CTGCTCCATG	1.03
CTGCTCGGAG	1.05
CTGCTGATAG	1.11
CTGCTGGTTT	1.03
CTGCTTAGGG	1.01
CTGGAA	1.07
CTGGAACCCA	1
CTGGAAGTGG	1.01
CTGGAATCGC	1.52
CTGGACGGAC	1.17
CTGGAGATGG	1.02
CTGGAGATTT	1.02

Sequence	switch fluorescence ratio
CTGGAGCTCA	2.48
CTGGAGTGAG	1.04
CTGGATTCGT	1.01
CTGGCACATC	1.2
CTGGCACTAT	1.05
CTGGCACTGT	1.03
CTGGCAGACA	0.993
CTGGCAGTTT	0.974
CTGGCGCAGC	1.03
CTGGCTATCA	0.917
CTGGCTGTAG	1.04
CTGGGACGGC	1.09
CTGGGACGGT	0.984
CTGGGAGTAT	1.03
CTGGGATGGA	1.01
CTGGGATTTC	0.98
CTGGGCAAGC	1.12
CTGGGCCCTG	1.03
CTGGGGAATA	1.04
CTGGGGTCTT	0.966
CTGGGGTTAA	1.01
CTGGGTAGCG	0.982
CTGGGTCAAA	1.04
CTGGGTCGCC	0.979
CTGGGTGCTG	0.954
CTGGGTTATA	1.01

Sequence	switch fluorescence ratio
CTGGTACATA	1.05
CTGGTACCT	1.07
CTGGTCGACA	0.977
CTGGTGAATT	1.02
CTGGTGCGAA	1.06
CTGGTTTCGC	1.03
CTGGTTTGCT	0.966
CTGTACATG	0.964
CTGTACGGCC	1.03
CTGTACTGAT	0.975
CTGTAGAGGA	1.01
CTGTAGCGGC	2.36
CTGTAGGAGA	1.01
CTGTATATGT	0.976
CTGTATGTAA	1.04
CTGTATGTAG	1.01
CTGTCAATGT	1.11
CTGTCACGAC	1.13
CTGTCCGGA	1.04
CTGTCCGGCA	1.05
CTGTCGTCGT	1.02
CTGTCTAAAT	1
CTGTCTCGGA	0.971
CTGTGAATGA	0.951
CTGTGCTATC	2.06
CTGTGGAAGT	0.986

Sequence	switch fluorescence ratio
CTGTGGACGC	1.06
CTGTGTAACG	0.946
CTGTGTCGGT	0.97
CTGTGTTCG	0.977
CTGTTAGCAC	1.7
CTGTTATCCA	1.01
CTGTTCCAGA	1.02
CTGTTTCCG	0.966
CTGTTTTTTA	0.984
CTTAAAATT	0.967
CTTAAACAGG	1.05
CTTAAGAAGG	0.995
CTTAATCGTG	0.978
CTTAATTGTA	1.02
CTTACCAACC	1.22
CTTACTAGGG	0.99
CTTACTCTCC	0.992
CTTACTGTGG	1.02
CTTAGAAACC	1.05
CTTAGAAGCT	0.984
CTTAGATCAG	1
CTTAGCAACG	1.01
CTTAGCGAAG	0.995
CTTAGCTGTC	1.02
CTTAGCTTCA	1.04
CTTAGGCTGG	0.997

Sequence	switch fluorescence ratio
CTTATAACGG	0.968
CTTATAGAAG	0.98
CTTATAGTGT	0.986
CTTATATAGC	1.03
CTTATATCGA	0.972
CTTATCATTT	0.993
CTTATCCATT	1.03
CTTATCGGAA	1.09
CTTATCGGCG	0.974
CTTATGAATT	1.04
CTTATGGAGA	1.02
CTTATGGAGG	0.993
CTTATTTAAT	0.999
CTTCAAGCGG	1.1
CTTCACCGTG	1.09
CTTCATAAAC	1.01
CTTCATGTTT	0.981
CTTCATTCCG	2.1
CTTCATTTAG	1.03
CTTCCAACGG	1.36
CTTCCACCGG	2.74
CTTCCCGACT	1.24
CTTCGAACCA	1.07
CTTCGGACAT	1.1
CTTCGGTTGC	1.34
CTTCGTGAA	1.08

Sequence	switch fluorescence ratio
CTTCGTTGT	1.06
CTTCTACTAG	1.03
CTTCTAGATG	1
CTTCTAGCGA	1.65
CTTCTCCCGG	1.56
CTTCTCGTCC	1.04
CTTCTGAAGC	1.96
CTTCTGATAC	2.43
CTTCTGATTC	1.6
CTTCTGGAGA	1.14
CTTGAACAG	1.02
CTTGACTTGG	1.01
CTTGAGCCTG	1.01
CTTGAGGGA	1.01
CTTGATCACG	0.992
CTTGATTCA	0.992
CTTGCATATG	1.02
CTTGCCCTGA	1.01
CTTGCCGACT	1.08
